From PubChem BioAssay AID504832 (National Center for Advancing Translational Sciences (NCATS), 2011)
Several values for one entry are separate records, joined by “and”; a condition that tells them apart may be missing. Equal entries are not always repeated. About 18,000 (5.8%) of roughly 310,000 compounds were called active. Inconclusive results, whose numbers are uncertain, are shown with a selection of clear calls. The call rests on the fitted dose curve; in most records, active means well fitted inhibition curve with a large enough effect; inconclusive means small, poorly fitted or top-dose-only effect, or another doubt; inactive means no such curve, though single readings can be large or run the other way. Potencies of inconclusive entries are left out as doubtful fits.
On the % scale 0 is the no-effect control and ±100 the full control effect; potency means the concentration at half of the fitted maximal effect; tags describe the fitted curve by direction and shape.

Experiment: Primary qHTS for delayed death inhibitors of the malarial parasite plastid, 48 hour incubation
Details: P. falciparum luciferase growth in erythrocytes; series mostly up to 28.7 µM; activity change, negative = inhibition: at the top concentration
Method in brief: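 Luciferase-expressing parasites in RBCs, 2% Hct / 0.1% parasitemia final; RPMI 1640 + 0.5% Albumax; 37 C, 5% CO2, one generation; luminescence read-out, lower signal = inhibition.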
For `O=C(CC1CCCCC1)c1c(O)c2ccccc2oc1=O`, the “activity change, negative = inhibition” value was inactive: 1.84%.
With `COc1ccc(CNC(=O)CCCn2c(=S)[nH]c3cc4c(cc3c2=O)OCO4)cc1` the Potency was inconclusive [inhibitor, partial curve].
With `Nc1cc(Nc2ccc(Br)cc2)nc(N)n1` the Potency was inconclusive [inhibitor, single point].
With `CCCCCN1CC(O)=C(c2nc3ccccc3[nH]2)C1=N` the “activity change, negative = inhibition” value was inactive: 54.3%.
For `CCn1cc(C(=O)NCCCN2CCCC2)c(=O)c2cc(S(=O)(=O)N3CCc4ccccc4C3)ccc21`, the Potency was inconclusive [inhibitor, partial curve].
For `Cc1nn(C(C)C)c(C)c1CN1CCCC(CCC(=O)NCc2ccccc2F)C1` (stereo not given), the Potency was inconclusive [inhibitor, single point].
In the case of `CCN(C(=S)Nc1ccccc1F)C1CCCCC1`, the Potency is reported as inconclusive [inhibitor, partial curve, poor fit].
For `Cc1ccc(S(=O)(=O)N2CCN(c3cc4c(cc3[N+](=O)[O-])n(C)c(=O)n4C)CC2)cc1`, the Potency was inconclusive [inhibitor, partial curve].
With `CSc1ccc(C(=O)N2CCc3ccc(NC(=O)c4ccccn4)cc3C2)cc1` the Potency was inconclusive [inhibitor, single point].
With `Cc1ccc2cccc(OCC(=O)Nc3cccc(S(=O)(=O)N4CCCC4)c3)c2n1` the Potency was active: 9.28 µM.
For `CCn1cc([N+](=O)[O-])c(C(=O)N2N=C(c3ccc(OC)cc3OC)CC2c2ccccc2O)n1` (stereo not given), the Potency was inconclusive [inhibitor, single point].
For `COc1cc2c(cc1OC)CN(c1nc(-c3cccnc3)nc3ccccc13)CC2`, the Potency was inconclusive [inhibitor, single point].
For `O=C(c1ccc2ccccc2c1)C1CCCN(S(=O)(=O)c2cccnc2)C1` (stereo not given), the Potency was inconclusive [inhibitor, single point].
With `Nc1c(C(=O)NCCc2ccccc2)sc2nc(N3CCOCC3)c3c(c12)CCCC3` the activity change, negative = inhibition was inactive: 4.13% [at 5.75 µM].
For `Cc1ccc2nc(-c3ccc(NC(=O)CSc4ccccc4)cc3)[nH]c2c1`, the Potency was inconclusive [inhibitor, full curve, poor fit].
In the case of `CC(C)COc1cccc(C(=O)N(CC(=O)Nc2ccccc2C(F)(F)F)Cc2ccco2)c1`, the Potency is reported as inconclusive [inhibitor, partial curve, poor fit].
In the case of `Cc1cccc(CNc2ncnc3ccc(-c4ccccc4Cl)cc23)c1`, the Potency is reported as active: 4.15 µM and active: 5.22 µM.
With `O=c1[nH]c(CN2CCCC2)nc2sc3c(c12)CCC3` the “activity change, negative = inhibition” value was inactive: -11.2%.
With `CCOC(=O)c1sc(NC(=O)CN(CC(C)C)CC(C)C)c(C(=O)OCC)c1C` the Potency was active: 2.33 µM.
For `Cc1ccc(S(=O)(=O)c2cc3c(=O)n4ccccc4nc3n(CCc3ccccc3)c2=N)cc1`, the Potency was active: 2.08 µM.
With `COc1ccc(OCC(=O)Nc2ccc(NC(=O)c3cccs3)cc2)cc1` the “activity change, negative = inhibition” value was inactive: -3.97%.
In the case of `Cc1ccc(NC(=O)Nc2ccc3c(c2)nnn3C)cc1C`, the “activity change, negative = inhibition” value is reported as inactive: 119%.
For `Cc1ccc(OCCOc2cccc(C=C3C(=O)NC(=O)NC3=O)c2)cc1`, the “activity change, negative = inhibition” value was inactive: 339%.
For `O=C(Cc1ccc(Nc2nc3ccc(Br)cc3[nH]2)cc1)NCCc1cccs1`, the Potency was active: 1.85 µM.
In the case of `O=C(Nc1c(C(=O)N2CCN(c3ccccn3)CC2)oc2ccccc12)c1ccc([N+](=O)[O-])cc1`, the Potency is reported as inconclusive [inhibitor, single point].
With `COc1ccc(-c2cc(=O)c3c(O)c(OC)c(O)cc3o2)cc1` the “activity change, negative = inhibition” value was inactive: 189%.
With `COc1ccc(OC)c(C(C)NC(=S)Nc2ccc(S(=O)(=O)Nc3ncccn3)cc2)c1` (stereo not given) the Potency was inconclusive [inhibitor, single point].
For `COc1ccc(-c2cc(C)no2)cc1S(=O)(=O)N(C)c1ccc(C)c(C)c1`, the Potency was inconclusive [inhibitor, single point].
For `O=C(Cc1ccc(S(=O)(=O)N2CCOCC2)s1)N1CCN(c2cccc(C(F)(F)F)c2)CC1`, the Potency was inconclusive [inhibitor, partial curve].
For `CCN(CC(=O)Nc1ccccc1C(F)(F)F)C(=O)c1oc2c(Cl)cccc2c1C`, the Potency was inconclusive [inhibitor, single point].
With `Cc1c(Cl)cccc1NC(=S)NCCc1ccc(Cl)cc1` the Potency was inconclusive [inhibitor, single point].
With `N#Cc1cccc(Nc2c3c(nc4ccccc24)CCC3)c1` the Potency was inconclusive [inhibitor, single point].
With `CCOC(=O)CN(C(=O)COc1nc(C)cc(C)c1C#N)c1ccc(Cl)cc1` the Potency was inconclusive [inhibitor, single point].
For `CC(NCc1ccccc1Cl)C(O)c1ccccc1` (stereo not given), the Potency was active: 9.28 µM.
In the case of `Cc1cc(C)c(NC(=S)N2CCC(N(C)CC3CCCO3)CC2)c(C)c1` (stereo not given), the “activity change, negative = inhibition” value is reported as inactive: 8.9%.
With `COc1ccc(CN2CCN(C(=O)c3ccco3)CC2)cc1OCc1ccccc1` the Potency was inconclusive [inhibitor, single point].
For `CCOC(=O)c1ccc(-n2c(CCC(=O)O)ccc2-c2ccc(F)cc2)cc1`, the “activity change, negative = inhibition” value was inactive: 3.19%.
With `CC(C)(C)NCC(O)COCc1ccc(Cl)cc1` (stereo not given) the Potency was inconclusive [inhibitor, single point].
With `Cn1c(CO)c(-c2ccccc2)c2cc([N+](=O)[O-])ccc21` the “activity change, negative = inhibition” value was inactive: 9.59%.
In the case of `O=C1/C(=C/c2cccs2)SC(=S)N1CCCC(=O)N(CCO)c1ccccc1`, the Potency is reported as inconclusive [inhibitor, single point].
With `CC(C)Cn1c(=O)c2c(nc3n2CC(C)CN3Cc2ccccc2)n(C)c1=O` (stereo not given) the Potency was inconclusive [inhibitor, partial curve].
In the case of `COc1ccc(OC)c(C(=O)CSc2nnc(-c3ccc(OC)c(OC)c3)o2)c1`, the “activity change, negative = inhibition” value is reported as inactive: -13.8%.
With `CCSc1nnc(NC(=O)c2c(C)noc2C)s1` the “activity change, negative = inhibition” value was inactive: -9.59%.
In the case of `COc1ccc([C@H]2CC(=O)C=C(c3ccc(OC)c(OC)c3)C2)cc1`, the Potency is reported as inconclusive [inhibitor, single point].
With `Cn1c(=O)c2c(nc(SCC(=O)NCc3ccc4c(c3)OCO4)n2Cc2ccc(F)cc2)n(C)c1=O` the Potency was active: 13.1 µM.
With `CCCC[C@@H]1CNCCN1CCc1cccc2ccccc12` the Potency was inconclusive [inhibitor, single point].
With `c1ccc(OCc2nc(-c3ccccc3)no2)cc1` the “activity change, negative = inhibition” value was inactive: 141%.
For `COc1ccc(N(C(=O)c2ccco2)C(C(=O)NC2CCCC2)c2cc(OC)c(OC)c(OC)c2)cc1` (stereo not given), the Potency was inconclusive [inhibitor, single point].
For `Cc1cc(C(=O)COC(=O)Cc2n[nH]c(=O)c3ccccc23)c(C)n1-c1ccc2c(c1)OCO2`, the Potency was active: 6.57 µM.
For `Cc1ccc(C)c(S(=O)(=O)N2CCN(C(=O)Cc3ccsc3)CC2)c1`, the Potency was inconclusive [inhibitor, full curve, poor fit].
With `O=C(Nc1ccccc1)Nc1cccc2cccnc12` the “activity change, negative = inhibition” value was inactive: 99.9%.
With `O=C1NC2(CCCCC2)C(=O)N1c1ccccc1` the “activity change, negative = inhibition” value was inactive: 0.29%.
In the case of `COc1ccc(C(=O)C[n+]2ccc(N(C)C)cc2)cc1`, the Potency is reported as active: 1.17 µM.
In the case of `O=C(CNC(=O)c1ccc(S(=O)(=O)N2CCCC2)cc1)N/N=C/c1ccco1`, the “activity change, negative = inhibition” value is reported as inactive: 2.83%.
In the case of `CC1CC(C)CN(C(=O)c2ccc3c(c2)OCCO3)C1` (stereo not given), the Potency is reported as active: 2.94 µM.
With `C/C=C(/C)C(=O)O[C@@H]1[C@H](OC(=O)C=C(C)C)c2c(ccc3ccc(=O)oc23)OC1(C)C` the Potency was inconclusive [inhibitor, partial curve, poor fit].
With `COc1ccccc1N1C[C@@H]2C[C@@H](c3ccco3)N3CCC[C@@]23C1=O` the Potency was inconclusive [inhibitor, partial curve, poor fit].
In the case of `O=C(COc1ccccc1)NC(=S)Nc1ccc(Br)cn1`, the Potency is reported as inconclusive [inhibitor, single point].
With `O=C(COC(=O)c1cnccn1)NCCc1ccccc1` the Potency was inconclusive [inhibitor, full curve, poor fit].
With `COc1cccc(C(C(=O)NC2CCCCC2)N(C(=O)c2cccs2)c2ccc3c(c2)OCO3)c1` (stereo not given) the Potency was active: 10.4 µM.
In the case of `NS(=O)(=O)c1ccc(N=Nc2c(O)c(C(=O)O)cc3ccccc23)cc1`, the Potency is reported as inconclusive [inhibitor, single point].
In the case of `COc1ccccc1N1CCN(CCCNc2cc(=O)n(C)c(=O)n2C)CC1`, the Potency is reported as inconclusive [inhibitor, partial curve, poor fit].
For `CN(Cc1ccc(Cl)cc1)C(=O)c1cc(S(=O)(=O)N2CCOCC2)ccc1N1CCCC1`, the Potency was inconclusive [inhibitor, partial curve, poor fit].
With `CC(=O)c1ccc(OCCCC(=O)N(CCC2=CCCCC2)c2c(N)n(Cc3ccccc3)c(=O)[nH]c2=O)cc1` the Potency was inconclusive [inhibitor, single point].
In the case of `COc1cc(-c2nnc(NC(=O)CCS(=O)(=O)c3ccccc3)o2)cc(OC)c1OC`, the “activity change, negative = inhibition” value is reported as inactive: -5.77%.
In the case of `CCc1cc(C(=O)N2CCCC(C(=O)c3cccc4ccccc34)C2)n(C)n1` (stereo not given), the “activity change, negative = inhibition” value is reported as inactive: 2.51%.
In the case of `Cc1ccc(C(=O)COC(=O)CNC(=O)c2ccco2)cc1`, the “activity change, negative = inhibition” value is reported as inactive: 5.34%.
In the case of `O=C(c1ccc(N2CCOCC2)c([N+](=O)[O-])c1)N1CCCCC1`, the “activity change, negative = inhibition” value is reported as inactive: 8.7%.
In the case of `COc1ccc(NC(=O)C2CCN(S(=O)(=O)c3ccc4c(c3)CC(C)N4C(C)=O)CC2)c(OC)c1` (stereo not given), the Potency is reported as inconclusive [inhibitor, partial curve, poor fit].
For `Oc1ccccc1/C=N/NC(=S)NCCc1ccccc1`, the Potency was inconclusive [inhibitor, single point].
